# About 540 (0.19%) of roughly 280,000 compounds were called active. Inconclusive means that the source gave no clear call. Such entries were picked first, then a sample of the others. Calls follow the shape of the dose curve; as a rule, active = well fitted activation curve with a large enough effect; inconclusive = small, poorly fitted or top-dose-only effect; inactive = flat fitted curve, though single readings scatter. A potency beside an inconclusive call is a rough fit, not a confirmed value.
# Experiment: Quantitative High-Throughput Screen for Regulators of Epigenetic Control; also: nearly all actives have a fitted effect of over 60% in size
# Settings: murine LDR cells, GFP reporter derepression, 30 h; series mostly up to 53.9 µM
# Method in brief: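 Murine LDR cells carrying a silenced, genomically integrated CMV-driven GFP reporter were exposed to compound for 30 hours at 37 C. After PBS washes, GFP-positive cells (20–120 um objects) were counted by laser-scanning microplate cytometry.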
# Potency is read from the fitted curve at half-maximal effect; tags tell the direction and shape of the fitted curve.
row,SMILES,Potency
1,COc1ccc(-c2nnc(NC(=O)c3cc(Cl)ccc3Cl)o2)cc1,inactive
2,CCOc1ccccc1NC(=O)c1cc2ccc3cccnc3c2[nH]1,inactive
3,N#Cc1c(-c2ccccc2F)cc(C2CC2)nc1SCC(=O)c1cccs1,"inconclusive: 31.6 µM [activator, single point]"
4,COc1ccc(Nc2ccccc2N)cc1,"inconclusive: 17.8 µM [activator, single point]"
5,COc1ccc(S(N)(=O)=O)cc1C(=O)NCCCN1CCN(c2ccc(C)cc2)CC1,inactive
6,COc1ccc(C2C(C(=O)Nc3cc(OC)c(OC)c(OC)c3)c3ccccc3C(=O)N2C)cc1 (stereo not given),"inconclusive: 3.16 µM [activator, single point]"
7,O=C(N/N=C/c1ccc(Cl)cc1Cl)c1cccc(F)c1,inactive
8,CCOC(=O)c1ccc(NC(=O)c2nc(S(=O)(=O)Cc3ccccc3)ncc2Cl)cc1,"inconclusive: 5.62 µM [activator, single point]"
9,COc1ccccc1-c1n[nH]c(=S)n1-c1ccccc1,inactive
10,CCOc1ccc2[nH]c3c(=O)n(CCc4ccc(OC)cc4)cnc3c2c1,active: 25.1 µM
11,COC(=O)CN1C(=O)S/C(=C/c2ccc(N3CCCCC3)o2)C1=O,"inconclusive: 4.47 µM [activator, single point]"
12,Cc1nc(OCc2ccccc2)c2ccccc2n1,inactive
13,Cc1ccc(S(=O)(=O)NNC(=O)c2sc(=S)n(C)c2C)cc1,"inconclusive: 35.5 µM [activator, single point]"
14,O=c1c2c(nc3c(-c4cccc5ccccc45)c[nH]n13)CCC2,inactive
15,CCC(C)n1c(=N)c(S(=O)(=O)c2ccc(C)cc2)cc2c(=O)n3cc(C)ccc3nc21 (stereo not given),"inconclusive: 35.5 µM [activator, single point]"
16,O=C(NC(=S)Nc1ccccc1N1CCCC1)c1ccc(-c2cccc([N+](=O)[O-])c2)o1,"inconclusive: 35.5 µM [activator, single point]"
17,COC(=O)c1c(NC(=O)c2ccc(S(=O)(=O)N3CCCCC3C)cc2)sc2c1CCN(C(C)C)C2 (stereo not given),"inconclusive: 15.8 µM [activator, partial curve]"
18,N#CC1(C#N)C(C(N)=O)C1c1ccccc1 (stereo not given),inactive
19,CN(C)S(=O)(=O)c1ccc(NC(=S)NC(=O)Cc2ccccc2)cc1,"inconclusive: 22.4 µM [activator, single point]"
20,CC(C)c1ccc(C2c3c(-c4ccccc4O)n[nH]c3C(=O)N2CCc2ccccc2)cc1 (stereo not given),"inconclusive: 15.8 µM [activator, partial curve]"
21,CCOC(=O)C1(CCCc2ccccc2)CCN(C(=O)CCOC)CC1,inactive
22,O=C(NCCCn1ccnc1)c1cc(-c2ccccc2)on1,"inconclusive: 31.6 µM [activator, single point]"
23,O=C(/C=C/c1ccccc1)NCCSCc1ccccc1Cl,inactive
24,CCN1/C(=C/c2ccc3ccc(C)cc3[n+]2CC)Sc2ccccc21,active: 1.12 µM

row,SMILES,Potency
1,Cc1cc(C)c2c(=O)[nH]c(=O)n(Cc3ccccc3)c2n1,"inconclusive: 31.6 µM [activator, single point]"
2,CCCn1c(=NC(=O)c2ccc3c(c2)OCO3)c(C#N)cc2c(=O)n3cccc(C)c3nc21,"inconclusive: 31.6 µM [activator, single point]"
3,Cc1cc(NC(c2cccnc2)c2ccc3cccnc3c2O)no1 (stereo not given),"inconclusive: 22.4 µM [activator, single point]"
4,Cc1ccc(S(=O)(=O)N2CCN(C(=O)CSc3nc4ccccc4c(=O)[nH]3)CC2)cc1,"inconclusive: 25.1 µM [activator, single point]"
5,Cc1cc(N2CCOCC2)ccc1/C=C1\NC(=O)N(Cc2ccccc2F)C1=O,"inconclusive: 15.8 µM [activator, single point]"
6,COc1ccccc1CNc1ncnc2ccc(-c3ccc(N(C)C)cc3)cc12,inactive
7,COc1ccc(-c2nnc(SCC(=O)NC(C)c3ccccc3)o2)cc1 (stereo not given),inactive
8,COc1cc(/C=N/NC(=O)Nc2cccc3nsnc23)cc(OC)c1OC,"inconclusive: 12.6 µM [activator, single point]"
9,Cc1ccc2nc(/C(C#N)=C/c3ccc(-c4cccc(Cl)c4)o3)[nH]c2c1,"inconclusive: 28.2 µM [activator, single point]"
10,O=C(COC(=O)COc1ccc(Cl)cc1Br)NCc1cccs1,inactive
11,O=C(COC(=O)Cc1cn2ccsc2n1)Nc1nc2ccccc2s1,"inconclusive: 14.1 µM [activator, single point]"
12,O=C(COc1ccccc1F)Nc1nnc(S(=O)(=O)N2CCCCCC2)s1,"inconclusive: 35.5 µM [activator, single point]"
13,COc1ccc(NC(=S)NCc2cccs2)cc1OC,"inconclusive: 35.5 µM [activator, single point]"
14,NC(=O)CC(NC(=O)Cc1ccc(Br)cc1)c1ccc(NCc2ccc(F)cc2)c([N+](=O)[O-])c1 (stereo not given),"inconclusive: 31.6 µM [activator, single point]"
15,C=CCN1C(=O)/C(=C\C=C2\N(C)c3ccccc3C2(C)C)SC1=S,active: 5.01 µM
16,Cc1ccc(NC(=S)NCC23C=CC(O2)C2C(=O)N(c4ccc(C)cc4)C(=O)C23)cc1 (stereo not given),"inconclusive: 25.1 µM [activator, single point]"
17,CCn1c(=O)cc(SCC(=O)Nc2ccc(C)cn2)c2ccccc21,"inconclusive: 35.5 µM [activator, single point]"
18,NC(=O)CC(NC(=O)Cc1ccc(Br)cc1)c1ccc(NCc2ccc(F)c(F)c2)c([N+](=O)[O-])c1 (stereo not given),"inconclusive: 31.6 µM [activator, single point]"
19,COc1ccc(OC)c(NC(=O)Cn2cc(C(=O)c3ccc(Cl)cc3)c(=O)c3cc(OC)ccc32)c1,"inconclusive: 35.5 µM [activator, single point]"
20,CCCCOc1ccc(CSC2=NCCN2)cc1[N+](=O)[O-],"inconclusive: 15.8 µM [activator, single point]"
21,COc1ccc(NC(=O)c2sc3nc4c(cc3c2N)CN(Cc2ccccc2)CC4)cc1OC,active: 17.8 µM
22,CCCCOC(=O)CSc1nnc(N)s1,"inconclusive: 14.1 µM [activator, single point]"
23,OCCN1CCN(Cc2cc(Cl)c3cccnc3c2O)CC1,"inconclusive: 12.6 µM [activator, single point]"
24,Cc1cccc(N=C2CSC(=O)N2)c1,inactive

row,SMILES,Potency
1,CCc1nnc(NC(=O)CSc2nc3c([nH]c4ccccc43)c(=O)n2-c2ccc(OC)cc2)s1,"inconclusive: 25.1 µM [activator, single point]"
2,C=CCn1c(N)c(-c2nc3ccccc3n2C)sc1=S,"inconclusive: 25.1 µM [activator, single point]"
3,COC(=O)c1ccccc1NC(=O)Cn1c(=O)n(CCCCC(=O)NCc2ccc3c(c2)OCO3)c(=O)c2ccccc21,"inconclusive: 35.5 µM [activator, single point]"
4,Cc1ccc(CNC(=O)c2cccc(Nc3nc4ccccc4n4nnnc34)c2)cc1,"inconclusive: 14.1 µM [activator, single point]"
5,O=C(c1csc(Nc2cccc3ccccc23)n1)N1CCCC1,inactive
6,S=C1N(c2ccccc2)C(c2cccc3ccccc23)N2CCCN12 (stereo not given),"inconclusive: 0.199 µM [activator, full curve]"
7,O=C(Cc1c[nH]c2ccccc12)N/N=C/c1ccccc1O,inactive
8,Cn1c(-c2cc(Br)ccc2O)n[nH]c1=S,inactive
9,CCCCCNCc1cccc(Br)c1,"inconclusive: 35.5 µM [activator, single point]"
10,Cc1cccc(-n2c(N)c(C(=O)N3CCN(C)CC3)sc2=S)c1,"inconclusive: 0.112 µM [activator, full curve, poor fit]"
11,CCCOCc1cc(CN2CCN(c3ccccc3OC)CC2)c(O)c2ncccc12,active: 3.55 µM
12,Cc1ccc(N=Cc2c(O)n(-c3nccs3)c(=O)c3ccccc23)c(C)c1,"inconclusive: 4.47 µM [activator, single point]"
13,CCN(CC)c1ccc(/C=C(/C#N)c2nc3ccc(C)cc3[nH]2)c(OC(C)C)c1,active: 5.01 µM
14,C/C(=N\NC(=O)COc1ccccc1-c1ccccc1)c1ccccn1,"inconclusive: 20 µM [activator, single point]"
15,N#Cc1cnn2c3c(cnc12)C(=O)N1CCc2ccccc2C1C3 (stereo not given),"inconclusive: 31.6 µM [activator, single point]"
16,COc1ccc(OCc2ccc(-c3nc(C#N)c(NCc4cccnc4)o3)o2)cc1,inactive
17,Cc1ccc2oc(C(Cl)(Cl)Cl)cc(=O)c2c1,"inconclusive: 25.1 µM [activator, single point]"
18,Cc1cccc(N2CCN(C(=S)Nc3ccc4nc(N5CCN(C)CC5)cc(C)c4c3)CC2)c1C,"inconclusive: 3.16 µM [activator, partial curve, poor fit]"
19,CS(=O)(=O)c1ncc(Cl)c(C(=O)Nc2c(C(=O)c3ccc(Cl)cc3)oc3ccccc23)n1,"inconclusive: 15.8 µM [activator, partial curve]"
20,COc1ccc(CCNC(=O)c2ccc(Cn3c(SCC(=O)NCCC(C)C)nc4cc5c(cc4c3=O)OCO5)cc2)cc1OC,inactive
21,Cc1cccc(Nc2nc3c(S(=O)(=O)c4ccc(Br)cc4)nnn3c3ccsc23)c1C,"inconclusive: 8.91 µM [activator, partial curve]"
22,Cc1ccc2nc(-c3ccncc3)cc(C(=O)NCCc3ccc(F)cc3)c2c1,"inconclusive: 12.6 µM [activator, partial curve]"

# — PubChem BioAssay AID1865 (National Center for Advancing Translational Sciences (NCATS), 2009)
